The whole screen tested about 230,000 compounds, of which fewer than 10 were called active. This list was built around the results that the source calls inconclusive (neither active nor inactive); the mix of calls is not that of the screen. The call rests on the fitted dose curve; in most records, active means well fitted curve in the direction sought with a large enough effect; inconclusive means small, poorly fitted or top-dose-only effect, or effect the other way, or another doubt; inactive means no such curve, though single readings can be large or run the other way. Potencies of inconclusive entries are left out as doubtful fits.
Target: Runt-related transcription factor 1 (Homo sapiens) + Core-binding factor subunit beta (Homo sapiens) (UniProt Q01196+Q13951)
Test: qHTS Assay for Compounds Blocking the Interaction Between CBF-beta and RUNX1 for the Treatment of Acute Myeloid Leukemia
Conditions: AlphaScreen CBFb-His/RUNX1-biotin binding, biochemical; series mostly up to 59.8 µM
From the text: NIH Chemical Genomics Center [NCGC]
NIH Molecular Libraries Probe Production centers Network [MLPCN]
Assay Submitter (PI): Paul Liu
Core Binding Factor (CBF) abnormalities are associated with 20-25% of all acute myeloid leukemias (AML), of which 5-10% are further sub classified as acute myelomonocytic leukemia with eosinophilia, also known as M4Eo in the FAB classification scheme. This subtype of leukemia is usually associated with chromosome 16 inversion (p13:q22). Chromosome 16 inversion results in formation of the fusion oncogene CBFB-MYH11, which encodes the fusion protein CBF-beta-SMMHC.
It has been hypothesized that the interference of CBF-beta and RUNX1 binding could have therapeutic implications for patients with CBF mediated leukemias. We developed a CBF-beta and RUNX1 binding assay in AlphaScreenTM format and optimized it for high throughput screening to search for inhibitors. The goal of this project is to screen MLPCN's compound collection (MLSMR) for identifying the inhibitors of the interaction between CBF-beta and RUNX1 proteins as research probes. If these probes work well in the animal models, the ultimate goal of this project is to development a new drug treatment for this disease.
This assay can not be used to assess how apparent inhibitors interfere with protein binding, and whether inhibitors specifically bind to either protein. Disruption of this protein-protein interaction, through any mechanism, is the intended target activity.
NCGC Assay Protocol Summary:
Step, Parameter, Description
(1) Reagent, 3 uL CBFb-His/RUNX1-biotin mix incubated together for 20 minutes at room temperature (30 nM each)
(2) Compound or control, 23 nL compound stock solution
(3) Incubation, 15 minutes at Room temperature
(4) Reagent, 1 uL 50 ng each of beads (Nickel beads and streptavidin beads)
(5) Incubation, 90 minutes at Room temperature
(6) Detection, Excitation=365 nm Emission=440 nm, Envision reader in AlphaScreenTM mode
Keywords: MLSMR, MLPCN, NIH Roadmap, qHTS, NCGC, Core binding factor, CBF, CBF-beta, Acute myeloid leukemia

Chain of UniProt Q01196 (Q01196 whole entry, looked up): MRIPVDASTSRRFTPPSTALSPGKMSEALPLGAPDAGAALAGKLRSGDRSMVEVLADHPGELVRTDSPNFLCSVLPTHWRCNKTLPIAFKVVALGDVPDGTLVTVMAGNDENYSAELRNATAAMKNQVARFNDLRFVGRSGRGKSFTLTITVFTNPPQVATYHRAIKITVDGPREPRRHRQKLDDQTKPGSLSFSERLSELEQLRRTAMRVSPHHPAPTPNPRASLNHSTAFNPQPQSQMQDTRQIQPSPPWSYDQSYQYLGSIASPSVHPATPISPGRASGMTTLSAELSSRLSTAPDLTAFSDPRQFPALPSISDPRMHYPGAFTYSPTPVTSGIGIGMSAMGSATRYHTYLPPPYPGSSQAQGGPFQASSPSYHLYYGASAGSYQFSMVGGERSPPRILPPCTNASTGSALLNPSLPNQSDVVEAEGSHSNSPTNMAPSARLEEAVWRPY
Chain of UniProt Q01196 (Q13951 whole entry, looked up): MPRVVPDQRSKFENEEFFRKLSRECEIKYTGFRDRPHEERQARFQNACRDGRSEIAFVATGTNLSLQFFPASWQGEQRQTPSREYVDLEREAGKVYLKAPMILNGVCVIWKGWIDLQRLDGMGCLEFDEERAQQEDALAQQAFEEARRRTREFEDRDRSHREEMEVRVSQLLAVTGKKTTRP

| SMILES | Potency |
| --- | --- |
| O=C(Nc1ccc(-c2nc3ccccc3[nH]2)cc1)c1ccccc1NS(=O)(=O)c1ccc(F)cc1 | inconclusive [inhibitor, single point] |
| O=C(O)COc1ccccc1/C=N/NC(=O)CSc1nnc(SCc2cccc3ccccc23)s1 | inconclusive [inhibitor, single point] |
| Cc1cc(C)cc(-n2cccc2/C=C2/C(=N)N3C(=NC2=O)SN=C3S(C)(=O)=O)c1 | inconclusive [inhibitor, partial curve] |
